The campaign covered roughly 150,000 compounds. About 540 (0.36%) showed an effect of 50% or more. The list shows a part of the results.
These compounds were tested on Plasmodium falciparum (assay: Primary screen in NF54 nanoGlo assay, in single point, at 2uM, 72h; a lower Z score goes with more inhibition). Details: timepoint 72 hour.
Type: functional, Erythrocyte

SMILES	% Inhibition	Z score
O=S(=O)(c1ccccc1)N1C2C=CCC1CC2 (configuration not stated)	-7%	1.31
NC(=O)Cn1cc(Nc2nc3ccccc3s2)cn1	1%	-0.19
Cc1nn(C)c(C)c1CCC(=O)N1C[C@@H]2CC[C@H]1CN(c1ncccn1)C2	0%	0.02
CC[C@@H](CO)NC(=O)c1cscn1	1%	-0.19
Cc1ccc(C(=O)Nc2cccc(CCc3nc4ccccc4[nH]3)c2)cc1F	-11%	1.28
CCC1(C)CN(C(=O)c2ccc(C(F)(F)F)nc2)C1	-4%	0.52
COc1ccc([C@@H](NS(=O)(=O)c2ccccc2C)C2CC(O)C2)cn1 (some centres not stated)	-7%	1.05
CO[C@@H](CNS(=O)(=O)c1cnn(C)c1)c1cc2ccccc2o1	-11%	1.88
CC(C)(C)c1ccc(C(C)(C)C)c(NC(=O)N2CCN([C@H]3CCNC3)CC2)c1	-5%	0.72
O=C(Cn1cnc2nc(N3CCOCC3)sc2c1=O)N1CCN(c2ccccc2F)CC1	-2%	0.34
CN(C(=O)c1ccoc1Cl)c1ccc(N2CCOCC2)nc1	-10%	1.56
O[C@H](COc1ccc(F)cc1)CN(Cc1ccccc1C(F)(F)F)C1CC1	14%	-1.61
CC[C@H]1C(=O)NCCCN1C(=O)Cn1ccc(C(F)(F)F)n1	-10%	1.45
Cc1ccc(Cn2c(=O)c3nn(C)cc3n3c(=O)n(Cc4c(F)cccc4Cl)nc23)cc1	3%	-0.4
COc1ccc(C(=O)N[C@H]2CCOC3(CCOCC3)C2)c(C)c1	0%	0.06
CCNC(=O)N1CC(=O)N(Cc2ccccc2)C1	-3%	0.25
CC(=O)Nc1nc2ccc(NC(=O)c3cnn(C(C)(C)C)c3)cc2s1	5%	-0.7
CNC(=O)C[C@H](C)N(C)c1nc2c(s1)c(C)nn2C	-9%	1.64
c1ccc(C[C@H]2COCC3(CCCC3)N2)cc1	-13%	1.8
CCOc1ccc(C(=O)N2CCN(c3ccncc3C)CC2)cc1OCC	-6%	1.09
OC(CN1CCCC(c2nncn2C2CC2)C1)c1ccccc1F (configuration not stated)	-18%	2.04
N#CC1(NC(=O)C2CC2c2ccc3c(c2)OCCO3)CCc2ccccc2C1 (configuration not stated)	-8%	1.03

SMILES	% Inhibition	Z score
O=C(NC1CCCC1)N1CC[C@H](Oc2ncc(F)cn2)C1	-9%	1.43
COc1cccc(CN2CCC[C@@]3(CCN(C(=O)Cc4c(C)[nH][nH]c4=O)C3)C2)c1OC	-1%	0.15
COc1ccc(-c2nc3c(c(N4CCC[C@@H]4C)n2)CCOCC3)cc1	-10%	0.99
O=C(Cc1ccsc1)N1CCN(C(=O)c2nnn3c2CO[C@H](c2ccccc2)C3)CC1	-16%	1.42
CN(C(=O)C1(C2CC2)CCC1)C1CC(O)C1 (configuration not stated)	-3%	0.26
O=C(OCC(=O)N(C1CCCC1)[C@H]1CCS(=O)(=O)C1)c1ccc2n[nH]c(=O)n2c1	-6%	0.65
COc1cc2c(cc1Cl)CN(Cc1ncnn1CCF)CC2	-14%	2.56
COC(=O)C1C(O)CCCN1Cc1ncc(C)o1 (configuration not stated)	1%	-0.17
CCOCCN(C)Cc1n[nH]c(C)c1C(=O)OCC	40%	-5.74
CCOC(=O)c1nc(N(CC)c2ccccc2)c2ccccc2n1	-4%	0.71
Cn1nccc1CNC(=O)CN1C(=O)COc2ccc(Cl)cc21	-13%	1.46
Cc1cccc2nc(NCc3cn(C(C)C)c(=O)[nH]c3=O)sc12	-9%	1.78
CC(C)Nc1cc(-c2cccnc2)nc(N)n1	-20%	3.18
CC(=O)Nc1c(-c2ccccc2)c(C)nn1-c1ccc(C(=O)N2CCc3ccccc3C2)cc1	27%	-3.12
CCc1nc(CN2CCC[C@H]2C(F)(F)F)no1	-5%	0.9
CC(C)CCc1noc(CNC2(c3nccs3)CCCC2)n1	1%	-0.13
Cc1nn(CCOc2ccccc2)c(=O)n1-c1ccccc1F	1%	-0.16
CNC(=O)c1noc(CN(C)CCn2ccnc2C)n1	21%	-3.92
Cc1cc(NCc2cc(C(C)C)on2)nc(N(C)C)n1	-2%	0.4
C[C@@H](Cn1cncn1)c1nc(Cc2cccs2)n[nH]1	-5%	0.93
Nc1nnc(-c2nnnn2-c2ccccc2)o1	4%	-0.58
Cc1cc(OCCOCCN(C)C)ccc1Cl	4%	-0.58

SMILES	% Inhibition	Z score
Cc1ccc2c(c1)nc(-c1cnc(N3CCCC3)nc1)n2C	-3%	0.31
Nc1nc(C2CC2)nc(N2CCN(C(=O)C[C@H]3CCOC3)CC2)n1	-8%	1.46
O=C1NCCCC[C@@H]1Nc1nc2ccccc2o1	-7%	1.1
Cc1ccc(CCNCC2(S(=O)(=O)NC(C)(C)C)CC2)cn1	14%	-1.65
O=S(=O)(NC1CC(NCC(F)(F)F)C1)c1cccc(F)c1 (configuration not stated)	-11%	1.43
CC[n+]1c(/C=C/N(C)c2ccccc2)oc2ccccc21	80%	-10.29
CCN(CC)S(=O)(=O)N1CCc2nc[nH]c2C12CCC2	-8%	1.43
Cc1cnc(CCNC(=O)NC(C)C(C)CO)s1 (configuration not stated)	-17%	2.22
CC[C@H](C)N(Cc1ccc(OS(=O)(=O)c2cccc(C(F)(F)F)c2)cc1)C(=O)Nc1cccc(OC)c1	-14%	1.55
Cn1cc(S(=O)(=O)NC(=O)CCc2ccsc2)c2ccccc21	-10%	1.44
COc1ccc(-c2nnc(-c3cccnc3NCCN3CCCCCC3)o2)cc1	-7%	1.27
CC1=C[C@@H](CNC(C)C)[C@H](C(C)C)C[C@H]1Cc1nnc(-c2ccncc2)o1	18%	-2.13
Cc1nc(C(=O)Nc2ccccc2O)c(Cc2ccccc2)s1	-4%	0.55
N#CC1(C(=O)NCC2CN(C(=O)c3ccccc3)C3CCN2C3)CCCCC1 (configuration not stated)	-6%	0.81
CCCn1c(=O)sc2cc(S(=O)(=O)N3CCC(C(=O)Nc4ccc(C(C)C)cc4)CC3)ccc21	-19%	2.28
CCOc1ccc(CN2CCN3C(=O)OC[C@H]3C2)cc1Cl	-13%	1.17
Cc1ccc(CCNC(=O)NC[C@H](O)COc2ccc(Cl)c(C)c2)o1	-16%	1.5
CC1(C)[C@@H](O)CCN1C(=O)Nc1cc2c(nn1)CCC2	19%	-2.45
Clc1cccc(Cn2ccnc2-c2cccs2)c1	-7%	0.93
Cc1nn(C)c(C)c1CNC(=O)CC1(N2Cc3ccccc3C2=O)CCOCC1	-8%	1.04
Cc1c(S(=O)(=O)Nc2cc(C3C(C)(C)C3(C)C)n[nH]2)cnn1C	-7%	0.68
C[C@H](OC(=O)c1cc(Cl)cc(Cl)c1)C(=O)NC(N)=O	-6%	0.9

SMILES	% Inhibition	Z score
O=C(NCc1ccc(F)cc1)c1cnc(-c2ccc(F)cc2)nc1N1CCc2ccccc2C1	7%	-1.02
O=C(Nc1ccn2nccc2c1)c1ccc2ncsc2c1	-3%	0.41
CC(C)c1nc(CN(C)C[C@@H]2CCCN3CCCC[C@H]23)no1	3%	-0.48
Cc1ccn([C@@H](C)CC(=O)NCCc2sccc2C)n1	-9%	1.81
Cc1nc([C@@H]2CCCN2c2ccnc(-c3nccs3)n2)[nH]c1C	-2%	0.38
CCc1nc(N2CCC3(CC2)C[C@H](c2ccccc2)CN(C2CC2)C3)no1	-8%	1.35
Cc1ncoc1C(=O)N1CCC(Cc2ccc(CN3CCCC3)cc2)CC1	-8%	1.52
C[C@](O)(CNC(=O)c1cccc(-c2cnco2)c1)CN1CCOCC1	-2%	0.26
Cc1ccc(C(=O)N(Cc2cccc(Br)c2)[C@H]2CCS(=O)(=O)C2)cc1	-12%	1.05
O=C1CN(C(=O)N[C@@H](Cc2ccccc2)C(=O)N2CCCCCC2)c2ccccc2N1	2%	-0.24
c1cnc2sc(CN3CCC[C@H]3c3ncc[nH]3)nc2c1	-5%	0.82
Cn1nnc(CNC(=O)N[C@H]2CC(C)(C)CCc3ccccc32)n1	-18%	1.74
Cc1cc(NC(=O)NCc2csc(C)n2)no1	-4%	0.58
Cc1ccc([C@H](CN2CCOCC2)NC(=O)c2cc(-c3ccco3)nc3onc(C)c23)cc1	-24%	2.87
CC[C@H](C)Oc1cc(-c2nc(CC(=O)NC)no2)ccn1	-15%	1.31
COc1cccc(NC(=O)C[C@H]2CCCN(c3cnn(CC4CC4)c(=O)c3)C2)c1	2%	-0.28
CCOCCOc1cc(C)ccc1CNc1nccn(C)c1=O	4%	-0.55
Cc1cc(S(=O)(=O)N2CC3CCCCC3C2)c(C)o1 (configuration not stated)	33%	-3.75
Cc1coc(C)c1C(=O)NC1(CO)CCOCC1	36%	-3.04
C[C@@H]1CN(C(=O)c2noc(-c3cccc(F)c3)n2)C[C@@]1(C)CN	-18%	3.23
